In the supplement of paper PMC9446081:
Hit rate of the full screen: of about 39,000 compounds, about 220 (0.56%) showed activity. The list shows a part of the results.

system: Escherichia coli K-12 BW25113; assay: relative growth (OD600 normalised to plate interquartile mean) (fraction); higher = less growth inhibition, active = 0.2 or less; details: 50 µM; LB; incubation time: overnight (16-24 h)
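Also: static incubation at 37 °C against the wild-type strain, values averaged over two biological replicates.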

| SMILES | relative growth |
| --- | --- |
| C[C@H]1CN([C@@H](C)CO)C(=O)c2cc(NC(=O)c3ccncc3)ccc2O[C@H]1CN(C)Cc1ccncc1 | inactive: 1 |
| C[C@H](CO)N1C[C@H](C)[C@H](CN(C)C(=O)Nc2ccc(F)cc2)OCCCC[C@H](C)Oc2ccc(NC(=O)Nc3ccc(F)cc3)cc2C1=O | inactive: 1.06 |
| O=C(O)[C@@H]1[C@@H]2CC[C@@H](C2)[C@H]1C(=O)O | inactive: 1 |
| C[C@@H]1CCCCO[C@H](CN(C)C(=O)NC2CCCCC2)[C@@H](C)CN([C@H](C)CO)C(=O)c2cc(NC(=O)c3ccccc3)ccc2O1 | inactive: 0.981 |
| CC(C)CC(=O)N1CCC(N)CC1 | inactive: 0.972 |
| Cc1noc(C)c1S(=O)(=O)Nc1ccc2c(c1)C(=O)N([C@H](C)CO)C[C@@H](C)[C@H](CN(C)S(=O)(=O)c1ccc(Cl)cc1)O2 | inactive: 1 |
| Cc1ccc(C(=O)CCNc2ccc3c(c2)oc2ccccc23)o1 | inactive: 0.993 |
| CCCCc1oc2ccc(NS(C)(=O)=O)cc2c1C(=O)c1ccc(OCCCN(CCCC)CCCC)cc1 | inactive: 1.12 |
| COc1ccc(NC(=O)Nc2ccc3c(c2)C(=O)N([C@@H](C)CO)C[C@H](C)[C@H](CN(C)S(=O)(=O)c2cccs2)OCCCC[C@H](C)O3)cc1 | inactive: 1.01 |
| Cc1noc(C)c1NC(=O)Nc1ccc2c(c1)C(=O)N([C@@H](C)CO)C[C@H](C)[C@@H](CN(C)C(=O)C1CCCCC1)OCCCC[C@H](C)O2 | inactive: 0.989 |
| C[C@H]1CN([C@@H](C)CO)C(=O)c2cc(NC(=O)Cn3cnnn3)ccc2O[C@H]1CN(C)C(=O)Nc1ccc2c(c1)OCO2 | inactive: 1 |
| Cc1noc(C)c1NC(=O)N(C)C[C@H]1Oc2ccc(NS(=O)(=O)c3ccccc3)cc2CC(=O)N([C@H](C)CO)C[C@@H]1C | inactive: 0.989 |
| C[C@H](CO)N1C[C@H](C)[C@H](CN(C)Cc2ccc(C(=O)O)cc2)Oc2ccc(NS(C)(=O)=O)cc2CC1=O | inactive: 0.983 |
| Cc1cc(C(=O)Nc2cccc3c2O[C@H](CN(C)Cc2ccc4c(c2)OCO4)[C@@H](C)CN([C@H](C)CO)C3=O)n(C)n1 | inactive: 0.983 |
| C[C@@H]1CN([C@@H](C)CO)C(=O)Cc2cc(NS(=O)(=O)c3cn(C)cn3)ccc2O[C@H]1CN(C)Cc1ccccc1 | inactive: 0.997 |
| C[C@H](CO)N1C[C@H](C)[C@@H](CN(C)S(=O)(=O)c2ccccc2)Oc2ccc(NC(=O)CCN3CCOCC3)cc2C1=O | inactive: 0.992 |
| C[C@@H]1CN([C@H](C)CO)C(=O)Cc2cc(NC(=O)Nc3cccc4ccccc34)ccc2O[C@H]1CN(C)Cc1ccc(Oc2ccccc2)cc1 | inactive: 1.01 |
| CNC(=O)CN1CC[C@]12CCN(C(=O)c1ccn(C)n1)C2 | inactive: 0.999 |
| Cc1ccc(S(=O)(=O)Nc2ccc3c(c2)C(=O)N([C@@H](C)CO)C[C@@H](C)[C@@H](CN(C)Cc2ccccc2)OCCCC[C@H](C)O3)cc1 | inactive: 1 |
| C[C@H](CO)N1C[C@H](C)[C@H](CN(C)C(=O)Nc2cccc3ccccc23)Oc2ccc(NS(=O)(=O)c3ccc(F)cc3)cc2C1=O | inactive: 1.01 |

| SMILES | relative growth |
| --- | --- |
| CN(C)CC(=O)N1[C@H](CO)[C@@H](c2ccc(C3=CCCC3)cc2)C12CN(S(=O)(=O)Cc1ccccc1)C2 | inactive: 0.961 |
| CC(C)NC(=O)Nc1ccc2c(c1)C(=O)N([C@H](C)CO)C[C@H](C)[C@@H](CN(C)Cc1ccccc1)OCCCC[C@H](C)O2 | inactive: 0.985 |
| C[C@@H]1CN([C@@H](C)CO)C(=O)c2cc(NC(=O)CCC(F)(F)F)ccc2O[C@@H](C)CCCCO[C@@H]1CN(C)C(=O)Cc1ccccc1 | inactive: 0.983 |
| C[C@@H]1CN([C@H](C)CO)C(=O)c2cc(C3=CCCC3)cnc2O[C@@H]1CN(C)C(=O)Nc1ccc(C(F)(F)F)cc1 | inactive: 1.01 |
| C[C@@H]1CN([C@@H](C)CO)C(=O)c2cccc(NC(=O)NC3CCCCC3)c2O[C@H]1CN(C)Cc1ccc(Cl)c(Cl)c1 | inactive: 0.943 |
| C[C@@H]1CCCCO[C@@H](CN(C)C)[C@@H](C)CN([C@H](C)CO)C(=O)c2cc(NC(=O)Nc3ccc(C(F)(F)F)cc3)ccc2O1 | inactive: 0.986 |
| C[C@H]1CN([C@@H](C)CO)C(=O)c2cccc(NS(C)(=O)=O)c2O[C@@H]1CN(C)C(=O)Nc1ccc(F)cc1 | inactive: 0.995 |
| Cc1noc(C)c1NC(=O)Nc1ccc2c(c1)CC(=O)N([C@H](C)CO)C[C@H](C)[C@@H](CN(C)Cc1ccc(C(F)(F)F)cc1)O2 | inactive: 0.993 |
| CN(C)C(=O)C[C@H]1CC[C@@H](NC(=O)C2CCOCC2)[C@H](CO)O1 | inactive: 0.99 |
| C[C@@H]1CCCCO[C@H](CN(C)Cc2ccc(C(=O)O)cc2)[C@H](C)CN([C@H](C)CO)C(=O)c2cc(NC(=O)Nc3ccccc3)ccc2O1 | inactive: 1.02 |
| C[C@H](CO)N1C[C@H](C)[C@H](CN(C)CC2CCCCC2)OCCCC[C@H](C)Oc2ccc(NS(=O)(=O)c3ccc(F)cc3)cc2C1=O | inactive: 0.973 |
| COc1cccc(S(=O)(=O)N(C)C[C@@H]2Oc3ncc(C#CC(C)C)cc3C(=O)N([C@@H](C)CO)C[C@H]2C)c1 | inactive: 0.958 |
| COC(=O)C1=CC(CCCO)=C[C@@H](c2cccs2)N(Cc2cccc(OC(F)(F)F)c2)C=C1C(=O)OC | inactive: 0.939 |
| Cc1cccc(NC(=O)Nc2ccc3c(c2)C(=O)N(C)[C@H]2CC[C@H](CC(=O)NCc4ccccc4Cl)O[C@@H]2CO3)c1 | inactive: 1.04 |
| CC(=O)N1C[C@@H](O)C[C@H]1C(=O)O | inactive: 1.03 |
| C[C@H](NC(=O)N(C)C[C@H]1OCc2ccccc2-c2ccccc2C(=O)N([C@H](C)CO)C[C@H]1C)c1ccccc1 | inactive: 1.01 |
| Cc1ccc(S(=O)(=O)N(C)C[C@H]2Oc3ccc(NC(=O)Cn4cnnn4)cc3C(=O)N([C@@H](C)CO)C[C@@H]2C)cc1 | inactive: 0.987 |
| C[C@H]1CCCCO[C@H](CN(C)S(=O)(=O)c2ccccc2)[C@@H](C)CN([C@@H](C)CO)C(=O)c2cc(NC(=O)C3CCCCC3)ccc2O1 | inactive: 1.01 |
| Cn1cnc(CCNC(=O)C[C@H]2CC[C@H]3[C@@H](COC[C@H](O)CN3C(=O)C3CC3)O2)c1 | inactive: 0.992 |
| COCCNC(=O)C[C@@H]1CC[C@H]2[C@@H](COC[C@H](O)CN2C(=O)Nc2ccccc2OC)O1 | inactive: 1.01 |

| SMILES | relative growth |
| --- | --- |
| Cc1noc(C)c1S(=O)(=O)Nc1cccc2c1O[C@@H](CN(C)S(=O)(=O)c1ccccc1)[C@@H](C)CN([C@H](C)CO)C2=O | inactive: 0.987 |
| CC(=O)OCC(=O)C12N=C(C)OC1CC1C3CCC4=CC(=O)C=CC4(C)C3C(O)CC12C (stereo not given) | inactive: 1.11 |
| COc1ccc(S(=O)(=O)Nc2cccc3c2O[C@@H](CN(C)S(=O)(=O)c2ccc(C)cc2)[C@H](C)CN([C@H](C)CO)C3=O)cc1 | inactive: 0.988 |
| C[C@H]1CCCCO[C@H](CN(C)C(=O)Nc2cccc3ccccc23)[C@@H](C)CN([C@@H](C)CO)C(=O)c2cc(NS(=O)(=O)c3cn(C)cn3)ccc2O1 | inactive: 0.989 |
| C[C@H]1CN([C@@H](C)CO)C(=O)c2cccc(NC(=O)Nc3ccc(C(F)(F)F)cc3)c2O[C@@H]1CN(C)C(=O)Nc1ccc(F)cc1 | inactive: 0.882 |
| C[C@@H]1CN([C@@H](C)CO)C(=O)c2cc(NC(=O)Nc3ccccc3)ccc2O[C@@H](C)CCCCO[C@H]1CN(C)Cc1ccncc1 | inactive: 1.02 |
| CC(C)CC#Cc1cnc2c(c1)C(=O)N([C@@H](C)CO)C[C@H](C)[C@@H](CN(C)S(=O)(=O)c1ccccc1)O2 | inactive: 1.01 |
| C[C@@H]1CN([C@@H](C)CO)S(=O)(=O)c2ccc(C#Cc3ccncc3)cc2O[C@@H]1CN(C)C(=O)C1CCCCC1 | inactive: 1.01 |
| C[C@@H]1CN([C@@H](C)CO)C(=O)Cc2cc(NC(=O)CCN3CCOCC3)ccc2O[C@@H]1CN(C)C(=O)Nc1ccc(F)cc1 | inactive: 0.992 |
| COc1ccc(S(=O)(=O)Nc2cccc3c2O[C@@H](CN(C)S(=O)(=O)c2ccccc2)[C@@H](C)CN([C@@H](C)CO)C3=O)cc1 | inactive: 1.01 |
| C[C@H]1CN([C@@H](C)CO)C(=O)CCCn2nncc2CO[C@H]1CN(C)S(C)(=O)=O | inactive: 0.986 |
| C[C@H](CO)N1C[C@H](C)[C@@H](CN(C)C(=O)Nc2ccccc2)Oc2ccc(NS(C)(=O)=O)cc2CC1=O | inactive: 0.982 |
| O=C(C[C@H]1CC[C@H]2[C@@H](COC[C@@H](O)CN2C(=O)c2ccccc2)O1)N1CCOCC1 | inactive: 0.996 |
| O=C(Nc1ccccc1)C1=C[C@@H](c2ccc3c(c2)Cc2ccccc2-3)C[C@@H](OCc2ccc(CO)cc2)O1 | inactive: 1.03 |
| C[C@@H]1CCCCO[C@@H](CN(C)C(=O)NC2CCCCC2)[C@@H](C)CN([C@@H](C)CO)C(=O)c2cc(NC(=O)Nc3ccc(F)cc3)ccc2O1 | inactive: 1 |
| CCn1cc(C(=O)O)c(=O)c2cc(F)c(N3CCNCC3)cc21 | active: 0.0456 |
| COc1ccc(S(=O)(=O)Nc2ccc3c(c2)CC(=O)N([C@H](C)CO)C[C@@H](C)[C@H](CN(C)Cc2ccc(-c4ccccc4)cc2)O3)cc1 | inactive: 1.04 |
| CCC(CC)[C@H](NC(C)=O)[C@@H]1[C@H](O)[C@@H](C(=O)O)C[C@H]1NC(=N)N | inactive: 0.98 |
| COC(=O)c1c(C)cc(OC(=O)c2c(C)cc(O)c(CO)c2O)c(C)c1O | inactive: 0.958 |
| C[C@H](CO)N1C[C@H](C)[C@H](CN(C)Cc2ccc(C(=O)O)cc2)Oc2c(NC(=O)c3ccncc3)cccc2C1=O | inactive: 0.989 |
